This list was built around the results that the source calls inconclusive (neither active nor inactive); the mix of calls is not that of the screen. Where the call is inconclusive, the potency comes from a doubtful curve fit. A note “side channel” means that the fit belongs to a control or component signal, not to the main read-out. Activity calls are given as the source filed them. The call rests on the fitted dose curve; in most records, active means well fitted inhibition curve with a large enough effect in the polarisation, with a control signal flat (not every such curve was filed as active); inconclusive means small, poorly fitted or top-dose-only effect, or effect the other way, or a change in a side signal; inactive means no such curve, though single readings can be large or run the other way; the % refers to the polarisation.
Assay: Confirmation of Inhibitors Targeting the Menin-MLL Interaction in MLL Related Leukemias: Competition With Texas Red Labeled MLL-derived Mutant Peptide
Conditions: fluorescence polarization, Texas Red MLL peptide displacement; series mostly up to 94.6 µM
Summary of the method: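 Hits from the primary screen were retested: compounds were incubated 1 hr at ambient with 200 nM menin, 50 nM Texas Red mutant peptide and 25 nM fluorescein wild-type peptide (Tris pH 7.5, BSA-supplemented buffer), then fluorescence polarization was read.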
In the case of `COc1ccc2[nH]c(=O)c(CN(Cc3cccs3)C(=S)Nc3cccc(C)c3)cc2c1`, the Potency is reported as inconclusive: 79.6 µM [fluorescent, side channel, partial curve]. In the case of `COc1ccccc1/C=C/C(=O)NC(=S)Nc1ccc(S(=O)(=O)N(C)c2ccccc2)cc1`, the Potency is reported as inconclusive: 20 µM [inhibitor, full curve]. For `O=C(CC(Sc1ccc(Br)cc1)C(=O)O)c1ccc(F)cc1` (stereo unspecified), the Potency was “inactive”. With `Cc1cc2nc(-c3ccc(SCC(=O)Nc4ccc5c(c4)OCCO5)nc3)[nH]c2cc1C` the Potency was inconclusive: 89.3 µM [fluorescent, side channel, single point]. For `CCCC(=O)Nc1cccc(NC(=O)c2ccc([N+](=O)[O-])cc2Cl)c1`, the Potency was “inactive”. For `CC(c1cc2ccccc2s1)N(O)C(N)=O` (stereo unspecified), the Potency was “inactive”. With `Cc1ccc[n+](-c2nc([O-])sc2/C=N/Nc2ccc([N+](=O)[O-])cc2)c1` the Potency was inconclusive: 71 µM [quencher, partial curve]. For `CCC(C)CCCCC(=O)N[C@@H](CCN)C(=O)N[C@H](C(=O)N[C@@H](CCN)C(=O)N[C@H]1CCNC(=O)C([C@@H](C)O)NC(=O)[C@@H](CCN)NC(=O)[C@H](CCN)NC(=O)[C@H](CC(C)C)NC(=O)[C@@H](CC(C)C)NC(=O)[C@H](CCN)NC1=O)[C@@H](C)O` (stereo partly specified), the Potency was active: 7.94 µM. For `CCOC(=O)CCC(=O)NCc1ccc2c(c1)cc(C)n2C`, the Potency was inconclusive: 251 µM [inhibitor, partial curve, poor fit]. In the case of `COC(=O)C1[C@H]2SC(C)(C)C(C(=O)OC)N2C(=O)N1Cc1nc2ccccc2s1` (stereo partly specified), the Potency is reported as inconclusive: 35.6 µM [fluorescent, side channel, partial curve]. For `CCn1cnc2c1c(=O)n(CC(=O)O)c(=O)n2Cc1ccccc1`, the Potency was “inactive”. In the case of `CCOC(=O)N1CCN(CC(=O)N2c3ccccc3Sc3ccccc32)CC1`, the Potency is reported as inconclusive: 50.2 µM [fluorescent, side channel, partial curve]. For `Cc1c(F)cccc1NS(=O)(=O)c1ccc2c(c1)c(C)cc(=O)n2C`, the Potency was “inactive”. In the case of `C[N+]1(CCNC(=O)/C=N/O)CCCCC1`, the Potency is reported as “inactive”. For `CC(c1ccncn1)N(C)Cc1nc(-c2ccc(C(F)(F)F)cc2)no1` (stereo unspecified), the Potency was “inactive”. For `CCC(=O)NC(=S)Nc1ccc(NC(=S)NC(=O)c2ccc(C)cc2)cc1`, the Potency was inconclusive: 71 µM [fluorescent, side channel, partial curve]. In the case of `O=C(Nc1ccc2ccccc2c1)c1cn(-c2ccccc2)nc1-c1cccs1`, the Potency is reported as inconclusive: 15.9 µM [inhibitor, full curve]. In the case of `O=C(C[N+]12CC[N+](CC(=O)c3ccc(F)cc3)(CC1)CC2)c1ccc(F)cc1`, the Potency is reported as active: 35.5 µM. With `CCOC(=O)N1CCN(Cc2nnc(-c3ccccc3C)o2)CC1` the Potency was “inactive”. For `O=C(Nc1ccc2c(c1)OCO2)c1ccccc1`, the Potency was “inactive”. With `O=C1C(Cl)=C(NCCN2CCOCC2)C(=O)c2ncccc21` the Potency was “inactive”. For `CCC(=O)NC(=S)Nc1ccc(-c2nc3ccc(C)cc3s2)cc1`, the Potency was inconclusive: 14.2 µM [inhibitor, full curve]. For `CCCC(=O)NC(c1ccccc1Cl)c1ccc2cccnc2c1O` (stereo unspecified), the Potency was “inactive”. For `CC(=O)O[C@H]1CSC[C@H]1NC(=O)c1ccccc1`, the Potency was “inactive”. In the case of `CCC(c1nnnn1Cc1ccc(F)cc1)N1CCN(C2CCCCC2)CC1` (stereo unspecified), the Potency is reported as active: 35.5 µM. For `CN[C@H]1[C@H](O)[C@@H](O[C@@H]2[C@H](O)[C@@H](O[C@H]3OC(CN)=CC[C@H]3N)[C@@H](N)C[C@H]2N)OC[C@@]1(C)O`, the Potency was “inactive”. In the case of `COc1ccc(C2Nc3ccc4ccccc4c3-c3c2c(=O)oc2ccccc32)cc1` (stereo unspecified), the Potency is reported as inconclusive: 20 µM [inhibitor, full curve]. In the case of `COC(=O)Cc1c(C)nc2nc(-c3ccc(OC)cc3)[nH]n2c1=O`, the Potency is reported as inconclusive: 141 µM [inhibitor, partial curve, poor fit]. In the case of `O=C(Nc1cc(Br)ccc1O)c1cc(-c2ccc3c(c2)OCO3)on1`, the Potency is reported as inconclusive: 35.5 µM [inhibitor, partial curve]. In the case of `O=c1oc2c(O)c(O)cc3c(=O)oc4c(O)c(O)cc1c4c23`, the Potency is reported as inconclusive: 44.8 µM [quencher, side channel, partial curve]. With `COc1ccc(-c2cc(=O)c3c(O)cc(O)c(-c4cc(-c5cc(=O)c6c(O)cc(OC)cc6o5)ccc4OC)c3o2)cc1` the Potency was inconclusive: 15.8 µM [inhibitor, full curve].

Reference: PubChem BioAssay AID2782 (National Center for Advancing Translational Sciences (NCATS), 2010)
Potency means the concentration at half of the fitted maximal effect; tags describe the fitted curve by direction and shape or compound fluorescence and quenching.
